From paper PMC4336329 (PLoS ONE, 2015)
Out of some 310,000 compounds screened, about 14,000 (4.5%) showed an effect of 50% or more. The effect is printed as a negative number. The list shows a part of the results.

Molecular target: human ether-à-go-go-related gene (hERG) potassium channel (human, UniProt Q12809)
Test: primary screen, population patch clamp on CHO cells stably expressing hERG
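Further: peak tail current of the secondary pulse compared with the same well before compound.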

Sequence of human ether-à-go-go-related gene (hERG) potassium channel (Q12809 whole entry, looked up): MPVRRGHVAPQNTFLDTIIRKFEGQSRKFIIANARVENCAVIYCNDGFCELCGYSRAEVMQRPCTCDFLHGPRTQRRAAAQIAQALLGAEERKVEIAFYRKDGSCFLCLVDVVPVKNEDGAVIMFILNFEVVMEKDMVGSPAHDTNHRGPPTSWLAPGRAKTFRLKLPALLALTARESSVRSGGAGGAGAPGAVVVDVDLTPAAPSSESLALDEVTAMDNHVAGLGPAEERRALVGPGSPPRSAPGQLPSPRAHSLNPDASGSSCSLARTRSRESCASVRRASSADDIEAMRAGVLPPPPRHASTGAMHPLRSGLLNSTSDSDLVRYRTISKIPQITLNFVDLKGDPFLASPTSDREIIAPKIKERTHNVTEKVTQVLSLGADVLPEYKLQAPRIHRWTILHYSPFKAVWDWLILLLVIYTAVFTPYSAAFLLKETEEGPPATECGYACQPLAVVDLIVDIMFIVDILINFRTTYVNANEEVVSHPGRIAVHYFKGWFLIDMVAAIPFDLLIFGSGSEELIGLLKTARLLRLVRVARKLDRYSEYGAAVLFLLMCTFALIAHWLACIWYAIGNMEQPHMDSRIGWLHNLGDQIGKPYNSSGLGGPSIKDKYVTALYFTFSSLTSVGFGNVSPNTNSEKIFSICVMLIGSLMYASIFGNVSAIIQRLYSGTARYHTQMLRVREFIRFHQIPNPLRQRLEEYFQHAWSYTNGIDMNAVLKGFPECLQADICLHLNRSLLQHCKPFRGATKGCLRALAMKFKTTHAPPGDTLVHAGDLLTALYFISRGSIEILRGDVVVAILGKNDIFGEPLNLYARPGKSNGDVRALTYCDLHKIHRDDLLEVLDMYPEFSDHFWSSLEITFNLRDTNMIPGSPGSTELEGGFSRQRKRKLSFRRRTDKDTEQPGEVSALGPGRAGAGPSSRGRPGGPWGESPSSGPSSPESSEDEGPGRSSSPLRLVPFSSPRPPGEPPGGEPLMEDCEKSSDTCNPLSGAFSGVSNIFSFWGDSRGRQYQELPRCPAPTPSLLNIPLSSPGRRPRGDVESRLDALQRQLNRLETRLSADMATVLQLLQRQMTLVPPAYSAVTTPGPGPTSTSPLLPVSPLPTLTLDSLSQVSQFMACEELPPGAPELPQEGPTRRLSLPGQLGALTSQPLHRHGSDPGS

Compound | hERG current change (%, negative = inhibition) at 10uM [%]
CCCOc1ccc(C2/C(=C(\O)c3c(C)[nH]c(C(=O)OC)c3C)C(=O)C(=O)N2CCN(C)C)cc1 (centres unmarked) | 16.6
COc1ccc(-n2nc3c(c2NC(=O)Cc2cccc(C)c2)CS(=O)C3)cc1 (centres unmarked) | -15.5
Cc1cc(C)cc(NC(=O)COC(=O)CCc2ccc(S(=O)(=O)N3CCOCC3)cc2)c1 | -3.69
CSc1ccccc1C(=O)Nc1c(C)cccc1C | 5.35
O=C(O)c1cccc(NC(=O)C2CC(=O)N(Cc3ccccc3)C2)c1 (centres unmarked) | 23.5
Cc1cccc(NC(=O)C2Cc3ccccc3O/C2=N\O)c1 (centres unmarked) | -1.41
Cc1ccc(C2(c3noc(CN(C)Cc4ccccn4)n3)CCCC2)cc1 | 7.29
O=C(CSc1nnnn1C1CCCCC1)Nc1cccc(NC(=O)c2ccco2)c1 | -27.8
CC1C(=O)N2CCCc3cc(NC(=O)C(=O)NCc4ccccn4)cc1c32 (centres unmarked) | 2.99
Cn1c(SC2=CS(=O)(=O)c3ccccc32)nc2ccccc21 | 4.24
Cc1cccc(NC(=O)CCCN2C(=S)NC(C)(C)CC2C)c1C (centres unmarked) | 9.52
O=C(NCc1ccco1)C(Cc1ccccc1)N1C(=O)c2ccccc2C1=O (centres unmarked) | -2.88
COC(=O)C1=C(C)NC(=O)/C1=C\c1cc(C)n(-c2ccc(F)cc2)c1C | 3.52
CC(O)(CS(=O)(=O)Cc1ccccc1)C(=O)Nc1cccc(C(F)(F)F)c1 (centres unmarked) | 1.72
CN(C(=O)COc1ccc(C(C)(C)C)cc1)C1CCS(=O)(=O)C1 (centres unmarked) | -17.1
COc1ccccc1C(=O)NCc1ccc2c(c1)OCO2 | -3.43
CC(C)C(NC(=O)CC12CC3CC(CC(C3)C1)C2)C(=O)O (centres unmarked) | 10.6
O=C(CC1Sc2ccccc2NC1=O)NCc1cccc(Cl)c1 (centres unmarked) | 16.9
COc1cc2c(cc1OC)CN(S(=O)(=O)c1ccccc1F)CC2 | 1.69

Compound | hERG current change (%, negative = inhibition) at 10uM [%]
O=C(c1ccc([N+](=O)[O-])cc1)N1CCN(C2=NS(=O)(=O)c3ccccc32)CC1 | -46.2
Cc1cc(C(=O)NCC(C)C)c2ccccc2n1 | 8.14
CS(=O)(=O)c1ccc(NS(=O)(=O)c2ccc3ccccc3c2)cc1 | 14.2
CC1CCN(S(=O)(=O)c2ccc3c(c2)CCN3C(=O)CCC(=O)O)CC1 | 8.01
Clc1ccc(C2CC(c3cccs3)n3ncnc3N2)c(Cl)c1 (centres unmarked) | 4.91
COc1ccc(OC)c(-c2csc(NC(=O)Cc3ccccc3F)n2)c1 | -2.42
NS(=O)(=O)c1cccc(NC(=S)NCc2ccccc2)c1 | 19.7
CCCSc1nc2c(c(=O)n1-c1ccc(OCC)cc1)SCC2 | 11
CCOc1ccc(/C=C2\CCC(C3CCCC3)C2=O)cc1OC (centres unmarked) | 16.2
Cc1ccccc1-n1nc(C)c2cc(C(=O)NC3CC3)sc21 | -5.95
O=C(CN1CCOCC1)N/N=C/c1ccc(C(=O)O)cc1 | 7.17
CCOC(=O)N1CCC(NC(=O)c2cc(S(=O)(=O)N3CCCCC3)ccc2F)CC1 | 13.1
CC(=O)Nc1ccc(S(=O)(=O)NC2=C(N3CCN(Cc4ccccc4)CC3)C(=O)c3ccccc3C2=O)cc1 | -6.37
Cc1ccc(S(=O)(=O)Cc2ccc(C(=O)N3CCC(C(N)=O)CC3)o2)cc1 | 30.7
Fc1ccc(CNCCc2ccccc2F)cc1 | -2.59
Cc1ccc(N2C(=S)NC3c4cc(Cl)ccc4OC2(C)C3C(=O)N(C)C)cc1 (centres unmarked) | 18.3
CN(C)c1nc(N)nc(-c2cccnc2)n1 | -15.3
O=C(COC(=O)c1c[nH]c(=O)[nH]c1=O)Nc1ccccc1Br | 5.69
O=C(Nc1ccccc1N1CCOCC1)C1CCN(S(=O)(=O)c2ccc(F)cc2)CC1 | 6.56

Compound | hERG current change (%, negative = inhibition) at 10uM [%]
Cc1ccccc1NC(=O)c1cc(S(=O)(=O)N2CCOCC2)cs1 | 9.42
N=c1c(S(=O)(=O)c2ccc(Cl)cc2)cc2c(=O)n3ccccc3nc2n1CCN1CCOCC1 | -46.4
O=C(O)c1occc1CSc1ccccc1 | 29
O=C(Nc1cccnc1Cl)c1cc(-c2cccc(O)c2)on1 | -8.42
COC(=O)C1CCN(C(=O)c2cc(OC)c(OC)c(OC)c2)CC1 | 19.3
COc1ccc(S(=O)(=O)N2CCOCC2)cc1NC(=O)COc1ncnc2ccccc12 | 6.62
O=C(Cc1ncc(C(F)(F)F)cc1Cl)N1CCN(c2cccc(Cl)c2)CC1 | -60.6
O=C(Nc1cccc(C(F)(F)F)c1)c1cc[n+]([O-])cc1 | 21.2
O=C(c1cc(-c2ccc(O)cc2)on1)N1CCCCCC1 | -19.3
Cc1cc(/C=C2\C(=N)N3N=CSC3=NC2=O)c(C)n1Cc1ccccc1 | -2.17
COCCCn1nnnc1SCC(=O)Nc1nc2ccccc2s1 | 6.93
COc1cc(CN2CCCCCC2)cc(Br)c1O | 6.72
CC1CCN(C(=O)COC(=O)/C=C/c2ccc(Br)o2)CC1 | -4.03
CCOC(=O)c1c(NC(=O)CN2C(=O)NC3(CCCCCC3)C2=O)sc(C)c1-c1ccc(C)cc1 | 4.24
O=C1OCC(c2ccccc2)=C1c1ccc(S(=O)(=O)N2CCOCC2)s1 | -9.86
CCOC(=O)c1c(-c2ccccc2)oc2ccc(OCC(=O)O)cc12 | 4.02
O=C(COc1ccc(Br)cc1)NCCNC(=O)c1cccnc1 | -14.8
CC1CC(N(C(=O)c2ccco2)c2ccccc2)c2ccccc2N1C(=O)c1ccco1 (centres unmarked) | -22.2
